# Measured values taken from PMC5290273 (Nature Communications, 2017).
# Results are given in words; binding and its absence hold for the method and conditions named. In cells and extracts the contact can be indirect. Some binding calls cover weakened binding; strength is not graded here. Tags and fused reporters may be left off the sequences shown.
# T1: FLAG-AFF4 Δ970–1,163 F345D (human) (UniProt Q9UHB7)
# T1 sequence: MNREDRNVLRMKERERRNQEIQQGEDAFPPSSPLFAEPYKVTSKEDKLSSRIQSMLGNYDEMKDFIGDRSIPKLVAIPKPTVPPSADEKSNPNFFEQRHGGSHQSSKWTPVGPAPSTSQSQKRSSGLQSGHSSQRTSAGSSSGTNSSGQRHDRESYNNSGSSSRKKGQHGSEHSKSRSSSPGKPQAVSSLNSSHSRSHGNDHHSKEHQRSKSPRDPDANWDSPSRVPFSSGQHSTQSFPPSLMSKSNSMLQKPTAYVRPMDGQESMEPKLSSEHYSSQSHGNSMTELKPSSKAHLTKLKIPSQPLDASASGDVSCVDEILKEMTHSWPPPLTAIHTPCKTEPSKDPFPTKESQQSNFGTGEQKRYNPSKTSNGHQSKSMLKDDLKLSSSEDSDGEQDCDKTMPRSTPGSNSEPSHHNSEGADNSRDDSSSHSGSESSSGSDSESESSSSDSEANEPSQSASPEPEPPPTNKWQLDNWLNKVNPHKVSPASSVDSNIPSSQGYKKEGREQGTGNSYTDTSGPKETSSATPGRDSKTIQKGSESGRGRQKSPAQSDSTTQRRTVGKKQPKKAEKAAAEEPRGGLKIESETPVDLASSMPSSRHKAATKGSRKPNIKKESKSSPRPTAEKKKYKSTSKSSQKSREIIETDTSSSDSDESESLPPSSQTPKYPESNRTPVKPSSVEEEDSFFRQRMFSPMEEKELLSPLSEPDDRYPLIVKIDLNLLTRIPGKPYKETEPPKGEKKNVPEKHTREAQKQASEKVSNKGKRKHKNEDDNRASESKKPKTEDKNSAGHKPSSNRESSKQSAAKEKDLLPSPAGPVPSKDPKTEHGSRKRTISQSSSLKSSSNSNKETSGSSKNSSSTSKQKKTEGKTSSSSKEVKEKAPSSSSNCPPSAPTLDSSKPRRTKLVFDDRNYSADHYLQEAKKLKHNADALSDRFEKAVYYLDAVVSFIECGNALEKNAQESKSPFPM
# Molecular target: T1, FLAG-AFF4 Δ970–1,163 F345D (human)
# Assay: co-IP
binder,measurement,value
"ELL1, endogenous (protein, UniProt P55199 1-621) MAALKEDRSYGLSCGRVSDGSKVSVFHVKLTDSALRAFESYRARQDSVSLRPSIRFQGSQGHISIPQPDCPAEARTFSFYLSNIGRDNPQGSFDCIQQYVSSHGEVHLDCLGSIQDKITVCATDDSYQKARQSMAQAEEETRSRSAIVIKAGGRYLGKKVQFRKPAPGATDAVPSRKRATPINLASAIRKSGASAVSGGSGVSQRPFRDRVLHLLALRPYRKAELLLRLQKDGLTQADKDALDGLLQQVANMSAKDGTCTLQDCMYKDVQKDWPGYSEGDQQLLKRVLVRKLCQPQSTGSLLGDPAASSPPGERGRSASPPQKRLQPPDFIDPLANKKPRISHFTQRAQPAVNGKLGVPNGREALLPTPGPPASTDTLSSSTHLPPRLEPPRAHDPLADVSNDLGHSGRDCEHGEAAAPAPTVRLGLPLLTDCAQPSRPHGSPSRSKPKKKSKKHKDKERAAEDKPRAQLPDCAPATHATPGAPADTPGLNGTCSVSSVPTSTSETPDYLLKYAAISSSEQRQSYKNDFNAEYSEYRDLHARIERITRRFTQLDAQLRQLSQGSEEYETTRGQILQEYRKIKKTNTNYSQEKHRCEYLHSKLAHIKRLIAEYDQRQLQAWP",binding,binds
